About 5,000 (1.2%) of roughly 410,000 compounds were called active. The shares of active, inactive and inconclusive entries below differ from those in the screen. Calls come from the whole dose curve; as a rule, active = well fitted inhibition curve with a large enough effect; inconclusive = small, poorly fitted or top-dose-only effect; inactive = no such curve, though single readings can be large or run the other way. Where the call is inconclusive, the potency comes from a doubtful curve fit.
Assay: qHTS for Inhibitors of TGF-b; note: nearly all actives have a fitted effect of over 65% in size
Details: HepG2 CAGA-GFP TGF-b/SMAD3 reporter, GFP fluorescence, 18 h, TGF-beta stimulated, 500 pg/mL final; series mostly up to 46.1 µM; activity, negative = inhibition: at the top concentration
Summary of the method: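 Cell-based qHTS in HEPG2 carrying a CAGA-GFP Smad reporter; compounds added before 500 pg/mL final TGF-beta, 18 h incubation at 37 degrees C, GFP fluorescence quantified per cell by imaging cytometry.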
% is set by controls: 0 for no effect and ±100 for the full control effect; potency is the fitted concentration of half-maximal effect; tags give direction and shape of the fitted curve.

Row | Compound | Potency | activity, negative = inhibition
1 | CCCCCn1c(CCNC(=O)c2ccc(F)cc2)nc2ccccc21 | inconclusive: 12.6 µM [inhibitor, partial curve, poor fit] | 
2 | O=C(Nc1ccc2c(c1)OCO2)c1cc(C2CCCCN2C(=O)c2ccc3c(c2)CCO3)on1 (stereo not given) |  | inactive: -5.48%
3 | O=C(NCCc1ccccc1)C1CCC(=O)N(Cc2ccc(Cl)cc2)C1 (stereo not given) | inconclusive: 5.62 µM [inhibitor, single point] | 
4 | Cc1ccc(-c2csc3nc4c5ccccc5c(NCCCN(C)C)nn4c(=O)c23)cc1 | inconclusive: 31.6 µM [inhibitor, single point] | 
5 | O=C(CCl)Nc1ccc(S(=O)(=O)NC2=NCCCCC2)cc1 | inconclusive: 28.2 µM [inhibitor, single point] | 
6 | CCOc1ccc(NS(=O)(=O)c2ccc(C(=O)NC3CCN(Cc4ccccc4)CC3)cc2)cc1 | inconclusive: 0.562 µM [inhibitor, full curve] | 
7 | Cc1cccc(C)c1OCCCn1c(CCNC(=O)C2CCCCC2)nc2ccccc21 | active: 11.2 µM | 
8 | O=S1(=O)c2c(F)cccc2O[C@@H](COCc2ccccc2)CN1CCc1ccc(F)cc1 | inconclusive: 35.5 µM [inhibitor, single point] | 
9 | COc1ccc(Cc2c(-c3ccco3)nc3ccc(Br)cn23)c(C)c1 | active: 15.8 µM | 
10 | O=C(O)CN1C(=O)/C(=C\c2cc(Br)ccc2OCc2ccccc2Cl)SC1=S | inconclusive: 7.08 µM [inhibitor, partial curve, poor fit] | 
11 | CCSc1nnc(NC(=O)C2CCCN(C(=O)c3ccc(Cl)cc3)C2)s1 (stereo not given) |  | inactive: -9.72%
12 | CCCc1nc2oc3c(NCC(C)O)ncnc3c2c2c1CCCC2 (stereo not given) | inconclusive: 8.91 µM [inhibitor, partial curve, poor fit] | 
13 | O=C(Cn1cccc1C(=O)c1ccccc1)NCc1cccs1 | inconclusive: 0.794 µM [inhibitor, partial curve] | 
14 | O=C(NC1CC2CCC(C1)N2Cc1nnnn1Cc1ccco1)NC12CC3CC(CC(C3)C1)C2 (stereo not given) | inconclusive: 35.5 µM [inhibitor, single point] | 
15 | NC1=C(Cl)C(=O)c2ccc(S(N)(=O)=O)cc2C1=O | inconclusive: 0.355 µM [inhibitor, full curve, poor fit] | 
16 | COc1ccc(S(=O)(=O)CCC(=O)NCCc2ccc(Cl)cc2)cc1 | inconclusive: 35.5 µM [inhibitor, single point] | 
17 | Cc1cc(C(=O)N2CCN(C/C=C/c3ccccc3)CC2)cs1 | active: 15.8 µM | 
18 | CC(C)(C)OC(=O)N1CCN(Cc2ccc(F)c(B(O)O)c2)CC1 |  | inactive: 16.8%
19 | CCC(C)N1C(=O)c2ccccc2C1C(=O)NC1CCCCCC1 (stereo not given) |  | inactive: -7.13%
20 | CNc1ccccc1C(C)(C)c1cc(-c2cc(C)cc(C)c2)no1 |  | inactive: 0%
21 | Cc1cc(C)nc(SCC(=O)Nc2ccc(N3CCOCC3)cc2)n1 | inconclusive: 22.4 µM [inhibitor, single point] | 
22 | CCCc1nc2sc3ccccc3c(=O)c2c(=O)n1Cc1ccco1 |  | inactive: 0.927%
23 | O=c1cc(N2CCCC2)c(-c2ccccc2)n[nH]1 |  | inactive: -11.2%
24 | C/C(=C\c1ccccc1)C(=O)N1CCN(Cc2ccc3c(c2)OCO3)CC1 | inconclusive: 5.62 µM [inhibitor, full curve] | 

Row | Compound | Potency | activity, negative = inhibition
25 | CCCCc1ccc(S(=O)(=O)NCCCN2CCCC2=O)cc1 | inconclusive: 31.6 µM [inhibitor, single point] | 
26 | COc1ccc2[nH]c3c(C)c4ccncc4c(C)c3c2c1 | active: 3.55 µM | 
27 | Cc1ccc(NC(=O)Cc2ccc(F)cc2)cc1 | inconclusive: 35.5 µM [inhibitor, single point] | 
28 | Cc1cc(C(=O)NCc2cccs2)c(C)o1 |  | inactive: -17.2%
29 | C/C(=N\Nc1nccnc1Cl)c1ccc(Cl)c(Cl)c1 | inconclusive: 12.6 µM [inhibitor, single point] | 
30 | O=[N+]([O-])c1cccnc1N1CCC(c2cc(-c3ccc(Cl)cc3)n[nH]2)CC1 | inconclusive: 20 µM [inhibitor, single point] | 
31 | COC(=O)C1=C(C)N(c2ccc(Cl)c(Cl)c2)C(=O)C1 | inconclusive: 35.5 µM [inhibitor, single point] | 
32 | CCn1nc(C(=O)Nc2nc(-c3ccccn3)cs2)c2ccccc2c1=O | inconclusive: 3.16 µM [inhibitor, full curve, poor fit] | 
33 | NC(N)=Nc1nc(CCN2C(=O)c3ccccc3C2=O)cs1 |  | inactive: 12.5%
34 | CSc1cccc(NC(=O)CCCNC(=O)c2ccc(Cl)cc2)c1 | inconclusive: 35.5 µM [inhibitor, partial curve, poor fit] | 
35 | COc1cc(NC(=O)CCS(=O)(=O)c2ccc3c(c2)CC(=O)N3C)cc(OC)c1OC |  | inactive: -6.6%
36 | O=[N+]([O-])c1ccc(COc2ccc(CNc3ccccc3)cc2)cc1 | inconclusive: 25.1 µM [inhibitor, single point] | 
37 | O=C(CSc1nnc(-c2ccccc2)n1-c1ccccc1)NCc1ccco1 | inconclusive: 22.4 µM [inhibitor, single point] | 
38 | Cc1ccc(C(=O)NC(NCC2CCCO2)C(Cl)(Cl)Cl)cc1 (stereo not given) | inconclusive: 14.1 µM [inhibitor, single point] | 
39 | COc1ccc(/C=C/c2nc(C#N)c(NCc3ccc(F)cc3)o2)cc1OC | inconclusive: 35.5 µM [inhibitor, single point] | 
40 | CCNc1nc(NCc2ccco2)c2ccccc2n1 | inconclusive: 4.47 µM [inhibitor, partial curve] | 
41 | C/C(Cn1cnc([N+](=O)[O-])n1)=N/NC(=O)COc1ccccc1Cl |  | inactive: 0.561%
42 | CCN(CC)C(=S)SC1CCCCN(C(=O)c2ccc(F)cc2)C1=O (stereo not given) | inconclusive: 35.5 µM [inhibitor, single point] | 
43 | Cc1noc(C)c1C(=O)Nc1nc2ccc(S(C)(=O)=O)cc2s1 |  | inactive: -1.96%
44 | COc1cc2c(cc1OC(C)=O)CCCCC2=O |  | inactive: -0.925%
45 | O=C(C[C@H]1C[C@H](C(=O)N2CCOCC2)[C@@]2(CCC3CCCC3)c3[nH]c4cc(-c5ccco5)ccc4c3CCN2C1=O)NCC12CC3CC(CC(C3)C1)C2 | inconclusive: 14.1 µM [inhibitor, partial curve, poor fit] | 
46 | CCN(C[C@H]1N[C@@](CC)(C(=O)OC)[C@H]2C(=O)N(Cc3ccccc3)C(=O)[C@@H]12)C(C)=O |  | inactive: 17.6%
47 | COc1ccc(S(=O)(=O)N2CCCN(CC(=O)Nc3ccc(OC)cc3OC)CC2)cc1 | inconclusive: 7.94 µM [inhibitor, partial curve, poor fit] | 
48 | Cc1ccc(C(OCC(O)CNC(C)c2ccccc2)c2ccccc2)cc1 (stereo not given) | inconclusive: 35.5 µM [inhibitor, single point] | 

Row | Compound | Potency | activity, negative = inhibition
49 | CCSc1cc(C2C(C#N)=C(N)OC(C)=C2C(=O)OC)c(C)o1 (stereo not given) |  | inactive: -10.5%
50 | CCCc1cc(C(=O)N2CCCC(Nc3ccc(C)c(C)c3)C2)n(C)n1 (stereo not given) | inconclusive: 35.5 µM [inhibitor, single point] | 
51 | Cn1c(=O)c2cc(NC(=O)NCCc3cccs3)ccc2n1Cc1cccc(C(F)(F)F)c1 | inconclusive: 11.2 µM [inhibitor, single point] | 
52 | CC(=O)c1sc(NC(=O)c2oc3ccc(F)cc3c2C)nc1C |  | inactive: 4.32%
53 | Cn1c(=S)c2[nH]c(SCc3cccnc3)nc2n(C)c1=O | inconclusive: 3.55 µM [inhibitor, single point] | 
54 | Cc1ccc(NCC(=O)Nc2cccc(S(=O)(=O)N(C)C)c2)cc1S(=O)(=O)N1CCCCCC1 | inconclusive: 3.16 µM [inhibitor, partial curve, poor fit] | 
55 | Cc1[nH]c2ccccc2c1C(=O)C(=O)NC1CC1 |  | inactive: -5.92%
56 | CCCCN(CC(O)COc1cccc(C)c1)CC(O)COc1cccc(C)c1 (stereo not given) | active: 15.8 µM | 
57 | COc1cc(OC)c(C2Nc3cccc4cccc(c34)N2)c(OC)c1 | inconclusive: 20 µM [inhibitor, single point] | 
58 | O=C1CC(Cc2ccccc2)C(=O)N1c1ncccn1 (stereo not given) |  | inactive: 18.2%
59 | CCOC(=O)c1sc(NC(=O)C2c3ccccc3Oc3ccccc32)c(C#N)c1C | inconclusive: 17.8 µM [inhibitor, single point] | 
60 | NC(=O)c1ccccc1N/C=C/C(=O)c1ccc(Cl)cc1Cl |  | inactive: 13.2%
61 | c1ccc(Nc2ccnc(Nc3ccccc3)n2)cc1 | inconclusive: 35.5 µM [inhibitor, partial curve, poor fit] | 
62 | CC(=O)c1cccc(CN2CCCC(C(=O)Nc3ccc(-c4ccco4)cc3)C2)c1 (stereo not given) |  | inactive: -4.22%
63 | CCCS(=O)(=O)c1nc(S(=O)(=O)c2ccc(C)cc2)c(N(C)Cc2ccccc2)s1 | inconclusive: 35.5 µM [inhibitor, single point] | 
64 | CC(C)OP(=O)(c1ccc(N(C)C)cc1)C(Nc1ccccc1)c1ccccc1 (stereo not given) | inconclusive: 7.08 µM [inhibitor, partial curve, poor fit] | 
65 | CS(=O)(=O)c1ccc(C(=O)OCC(=O)Nc2cccnc2Cl)cc1[N+](=O)[O-] | inconclusive: 35.5 µM [inhibitor, single point] | 
66 | Oc1[nH]c2ccccc2c1N=NC(=S)N1CCOCC1 | active: 7.08 µM | 
67 | CCOc1ccc(Cl)cc1-c1cc(C(=O)NC(C)C)[nH]n1 |  | inactive: 22.2%
68 | Cc1cc(C)cc(OCc2ccc(C(=O)N3N=C(C(F)F)CC3(O)C(F)F)o2)c1 (stereo not given) | inconclusive: 35.5 µM [inhibitor, single point] | 
69 | CCOc1ccc(NC(=O)CN(C)C(=O)c2cc(S(=O)(=O)N3CCCCC3)ccc2C)cc1OCC | inconclusive: 35.5 µM [inhibitor, single point] | 
70 | Cn1nc(C(=O)Nc2nc(-c3ccc(F)cc3)cs2)ccc1=O | inconclusive: 35.5 µM [inhibitor, single point] | 
